Test results published in PubChem BioAssay AID686978 (National Center for Advancing Translational Sciences (NCATS), 2013).
Out of some 420,000 compounds screened, about 64,000 (15%) were called active. Inconclusive results, whose numbers are uncertain, are shown with a selection of clear calls. The call rests on the fitted dose curve; in most records, active means well fitted inhibition curve with a large enough effect; inconclusive means small, poorly fitted or top-dose-only effect; inactive means flat fitted curve, though single readings scatter. Potencies of inconclusive entries are left out as doubtful fits.

experiment: qHTS for Inhibitors of human tyrosyl-DNA phosphodiesterase 1 (TDP1): qHTS in cells in absence of CPT; conditions: DT40 Tdp1-/- hTDP1 cells, no CPT, ATP luminescence, 48 h; activity change, negative = growth inhibition: at 46.2 µM (top of the series) unless noted; further: nearly all actives have a fitted effect of over 55% in size
Summary of the method: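 Luminescent ATP content (CellTiter-Glo) served as the growth readout. Knockout chicken DT40 cells expressing human TDP1 were exposed to compounds without camptothecin for a minimum 48 hr at 37 °C.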
On the % scale 0 is the no-effect control and ±100 the full control effect; potency means the concentration at half of the fitted maximal effect; tags describe the fitted curve by direction and shape.

SMILES | Potency | activity change, negative = growth inhibition
CCCCCCCCS(=O)C1CCS(=O)(=O)C1 (stereo not given) | inconclusive [inhibitor, partial curve] | –
O=C(Nc1cccc(NC(=O)c2ccco2)c1)c1cccc(Br)c1 | inconclusive [inhibitor, partial curve] | –
COc1nnc(-c2ccc(C)cc2)c2ccccc12 | inconclusive [inhibitor, single point] | –
CC(C#N)Sc1nnc(Nc2ccccc2)s1 (stereo not given) | active: 18.4 µM | –
CC1Cc2ccccc2N1C(=O)COC(=O)c1ccc(Cl)c(S(=O)(=O)N2CCOCC2)c1 (stereo not given) | – | inactive: -11.8%
Cc1nc(NCc2ccc3c(c2)OCO3)c2oc3ccccc3c2n1 | – | inactive: -25.6%
Cc1cccc(C)c1NS(=O)(=O)c1ccc2c(c1)C(=O)c1ccccc1C2=O | inconclusive [inhibitor, single point] | –
Nc1c(C(=O)NCC2CCCO2)c2nc3ccccc3nc2n1-c1ccccc1 (stereo not given) | active: 16.4 µM | –
O=C(O)c1cccc(N2C(=O)/C(=C/c3ccc([N+](=O)[O-])cc3)C=C2c2ccccc2)c1 | inconclusive [inhibitor, single point] | –
CCN1C(=O)N(C)[C@@H](c2ccccc2)C(C(=O)OC)=C1C | inconclusive [inhibitor, single point] | –
O=C(c1ccncc1)N1CCN(S(=O)(=O)c2cccc(Cl)c2)CC1 | – | inactive: -14.8%
CN(Cc1ccccc1)C(=O)[C@@H]1CCCN1C(=O)[C@@H]1CCCN1C(=O)c1cccc(Cl)c1 | – | inactive: -14.2%
Cc1ccccc1NC(=O)c1ccccc1-c1ccccc1 | inconclusive [inhibitor, single point] | –
COc1cccc(NC(=O)CN2CCN(S(=O)(=O)c3ccc(C(C)C)cc3)CC2)c1 | inconclusive [inhibitor, single point] | –
CCC(CC)c1nnc(NC(=O)CS(=O)(=O)c2ccccc2)s1 | inconclusive [inhibitor, partial curve] | –
N#Cc1c(N)n(CCOC(=O)c2ccc(Cl)cc2)c2nc3ccccc3nc12 | inconclusive [inhibitor, single point] | –
COC(=O)c1cccc(-n2c(C)cc(/C=C3\SC(=O)NC3=O)c2C)c1 | inconclusive [inhibitor, single point] | –
FC(F)(F)c1cccc(NC(=S)NNC(=S)NCc2ccccc2)c1 | active: 25.9 µM | –
COCc1cc(=O)[nH]c(-c2csc(C)n2)n1 | – | inactive: -10.1%
Cc1ccc2oc(=O)c3cnn(CC(=O)NCCN4CCOCC4)c3c2c1 | – | inactive: -1.44%
CCc1ccc(NC(=O)C(C)OC(=O)c2ccc(N3CCCC3)c([N+](=O)[O-])c2)cc1 (stereo not given) | inconclusive [inhibitor, single point] | –
COC(=O)c1c(OCc2ccccn2)cc(=O)n2c1CCN(Cc1cccc(C(F)(F)F)c1)CC2 | – | inactive: -8.06%
CC(=O)N1CCC(N(Cc2ccco2)C(=O)Nc2ccc(C)c(Cl)c2)CC1 | inconclusive [inhibitor, single point] | –

SMILES | Potency | activity change, negative = growth inhibition
CCC(C)NC(=O)Cn1c(=O)n(CCCC(=O)NCc2ccccc2Cl)c(=O)c2ccccc21 (stereo not given) | inconclusive [inhibitor, single point] | –
CC(C)Oc1ccc(C(=O)NC(C)(C)CO)cc1 | – | inactive: -14.9%
CCc1nc2c(OCCC3CCCCC3)cccn2c1N(C=O)Cc1ccc(OC)cc1 | inconclusive [inhibitor, single point] | –
COc1ccc(NC(=O)COC(=O)c2ccc(S(=O)(=O)N3CCCCC3)cc2)c(OC)c1 | – | inactive: -3.93%
Cn1c(=O)n(C)c2cc(/C=N/NC(=O)c3cc4cc(Br)ccc4o3)ccc21 | – | inconclusive: -33.4% [inhibitor]
Cc1ccc(-c2nnc(Nc3ccc4c(c3)OCO4)c3ccccc23)cc1S(N)(=O)=O | inconclusive [inhibitor, single point] | –
C=CCNC(=S)Nc1sc2c(c1C(N)=O)CCCC2 | inconclusive [inhibitor, single point] | –
COc1ccc(Nc2c(-c3ccc(C)o3)nc3cc(C)ccn23)cc1 | active: 11.6 µM | –
CC(NCc1ccc(F)cc1)C(=O)Nc1cc(S(=O)(=O)N2CCCCC2)ccc1Cl (stereo not given) | inconclusive [inhibitor, partial curve, poor fit] | –
CCNC(=O)c1ccccc1NC(=O)c1cccc(S(=O)(=O)N2CCOCC2)c1 | – | inactive: 1.31%
Cc1ccccc1-c1cc2nc(NCc3ccc4occc4c3)n(C)c(=O)c2s1 | inconclusive [inhibitor, single point] | –
CCOc1ccc(OCC)c(NC(=O)c2ccc(CNc3c(N4CCCC4)c(=O)c3=O)cc2)c1 | inconclusive [inhibitor, partial curve] | –
Cc1ccc2nc(-c3cccc(NS(C)(=O)=O)c3)cc(-c3ccccc3)c2c1 | – | inconclusive: -32% [inhibitor]
O=C1CN(C(=O)COC(=O)c2cc(Cl)ccc2[N+](=O)[O-])c2ccccc2N1 | inconclusive [inhibitor, partial curve] | –
Cc1cc(C(=O)N/N=C/C=C/c2ccc(Br)cc2)n[nH]1 | – | inactive: 10.7%
COc1ccc(/C=C2\SC(=S)N(CCC(=O)N3CCCCC3CCO)C2=O)cc1 (stereo not given) | inconclusive [inhibitor, single point] | –
O=C(/C=C/c1ccc2c(c1)OCO2)Nc1nncs1 | – | inactive: -5.35%
CCc1nc2ccccc2c(C(=O)OCC(=O)NCc2ccco2)c1C | inconclusive [inhibitor, partial curve] | –
CCCC(C(=O)NC1CCCC1)N(CCCN1CCOCC1)C(=O)c1snc(C(N)=O)c1N (stereo not given) | – | inactive: -2.98%
COc1cc2cnc(-c3ccccc3)c(-c3ccc([N+](=O)[O-])cc3)c2cc1OC | inconclusive [inhibitor, single point] | –
O=C(Nc1cc(Cl)cc(Cl)c1)C(NCC1CCCO1)c1ccccc1 (stereo not given) | inconclusive [inhibitor, single point] | –
CC(C)(C)OC(=O)NN1CC(=O)N2Cc3ccccc3C[C@@H]2C1=O | – | inactive: 13.6%
